From PubChem BioAssay (NCI)
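Values below derive from 48-hour exposures of cells grown in 96-well plates, with endpoints linearly interpolated between the two concentrations bracketing the appropriate inhibition level. GI50 marks 50% less growth. TGI: total growth inhibition.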

Tested on: NCI-H322M lung
Experiment: inhibition of tumour cell growth, NCI panel, 48 h

SMILES	TGI	GI50
COc1ccc(/C=C2/SC(=Nc3ccccc3)N(NC(=O)Cc3ccccc3)C2=O)c(OC)c1	> 100 µM	–
CC(C)(CCl)NC(=O)c1cccc(C(=O)NC(C)(C)CCl)n1	> 100 µM	–
Fc1ccc(-c2ncn(CCCN3CCOCC3)c2-c2ccncc2)cc1	> 25 µM	> 25 µM
O=C(O)CN1C(=O)CN=C(c2ccccn2)c2cc(Cl)ccc21	> 100 µM	–
CCOC(=O)[C@@]1(C(C)=O)CC(C)=C(C)C[S@]1=O	> 100 µM	–
O=S(=O)(O)c1cc(S(=O)(=O)O)c2c(N=Nc3ccc(S(=O)(=O)O)c4ccccc34)c(O)ccc2c1	> 100 µM	–
O=C1CCC2(CC1CCS(=O)c1ccccc1)OCCO2 (stereo not drawn)	> 100 µM	–
Cc1nc(-n2nc(-c3ccccc3)cc2-c2ccccc2)sc1C(=O)/C=C/c1ccc([N+](=O)[O-])cc1	> 87.7 µM	–
COC(=O)N/N=C(\C)CC(=O)Nc1cccc([N+](=O)[O-])c1	> 100 µM	–
CCCCc1n(Cc2ccc3ccccc3n2)cc[n+]1Cc1ccc2ccccc2n1	16.1 µM	3.6 µM
CC(C)=Cc1cccc2[nH]c(O)c(N=Nc3ccc(S(N)(=O)=O)cc3)c12	> 25 µM	> 15.9 µM
O=C1/C(=C/c2ccccc2)CCc2ccc([N+](=O)[O-])cc21	> 100 µM	–
O=C1OC(c2ccc(Cl)cc2)=N/C1=C\c1ccccc1	> 100 µM	–
CCOC(=O)CNC(=O)OCc1ccccc1	> 100 µM	–
Nc1ncnc2c1ncn2[C@@H]1O[C@H](COP(=O)(O)OP(=O)(O)OC[C@H]2O[C@@H](OCCCO)[C@H](O)[C@@H]2O)[C@@H](O)[C@H]1O	> 100 µM	–
CC(C)(C)OC(=O)N1CC(C)(C)N2C(=O)C3(CCCO3)C12 (stereo not drawn)	> 100 µM	–
COc1ccc2nc3cc([N+](=O)[O-])ccc3c(Nc3ccc(S(=O)(=O)Nc4ncccn4)cc3)c2c1	> 100 µM	–
CC(C)CCCCCCCCCCCCC(=O)NCC(=O)NC1C(C)OC(Nc2ncnc3nc[nH]c23)C(O)C1O (stereo not drawn)	–	0.0112 µM
COc1cc2c(cc1O)c(=O)n(CCN(C)C)c1c3cc4c(cc3ncc21)OCO4	1.47 µM	0.0306 µM
COc1ccc(C(=O)CCN(C)C)c2ccccc12	> 100 µM	–

SMILES	TGI	GI50
CN(/N=C/c1ccccc1O)c1ccc2ccccc2n1	46.6 µM	–
C[N+](C)(C)C1CC([N+](C)(C)C)C2c3ccccc3C21 (stereo not drawn)	> 100 µM	–
CCc1cccc(NC(=O)Nc2ccc(Oc3ccc4nc(NC(=O)OC)[nH]c4c3)cc2)c1	> 25 µM	12.6 µM
CCOc1cc(C2SCC(=O)N2c2ccc3c(c2)Oc2c(Cl)c4c(c(Cl)c2=N3)Oc2cc(N3C(=O)CSC3c3ccc(O)c(OCC)c3)ccc2N=4)ccc1O (stereo not drawn)	> 100 µM	–
CCOC(=O)/C(=C\c1cn(C(C)=O)c2ccccc12)P(C)(=O)OCC (stereo not drawn)	> 100 µM	–
O=C(O)c1ccccc1/C=C1/Cc2ccc3c(c2C1=O)CCC3	> 100 µM	–
COc1ccc(C2CC(c3ccc(OC)cc3O)=NN2c2ccc(S(N)(=O)=O)cc2)cc1 (stereo not drawn)	> 100 µM	13.7 µM
C1=CCC[C@@H]2CN3CCCC/C=C\CCCC[C@H]4C[C@H](CN(CCCCCCCC1)C4)[C@H]2CC3	19.4 µM	–
CCc1cccc(C(C)CC)c1NC(=O)C(=O)Cc1nc2ccccc2o1 (stereo not drawn)	> 50 µM	–
O=C1NC(=O)C(C(c2ccc([N+](=O)[O-])cc2)C2C(=O)NC(=O)NC2=O)C(=O)N1	> 100 µM	–
O=C(CCCC(=O)N/N=C/c1cc(Cl)ccc1O)N/N=C\c1cc(Cl)ccc1O	> 100 µM	4.5 µM
N#CC1(N2CCCC2)CCC2(CC1)OCCO2	> 100 µM	–
COc1ccc(-c2cc(-c3ccc(OC)cc3)nc(NCCCNc3ccnc4cc(Cl)ccc34)n2)cc1	4.37 µM	1.95 µM
O=C(O)/C=C/c1ccc(OS(=O)(=O)O)cc1	> 100 µM	–
CCOC(=O)[C@@H](NC(=O)OC(C)(C)C)[C@@H](O)C(=O)OCC	> 100 µM	–
Cc1cccc2c(NCCN(C)C)c3cccc(C(=O)NCCN(C)C)c3nc12	6 µM	–
CC1(C)N=c2cc3c(cc2N1c1ccc(Cl)cc1)=Nc1ccccc1N3c1ccc(Cl)cc1	> 100 µM	15.6 µM
CC12C3CC4C5CC(C(C53)[C@@H]1NCc1ccccc1)C42 (stereo partly drawn)	> 100 µM	–
C/C=C\C(CC(=O)NCCC1CN(C(=O)OCc2ccccc2)c2ccccc21)CC(=O)OC (stereo not drawn)	> 100 µM	–
